Results published in ChEMBL document CHEMBL4888484, “Replenishing the malaria drug discovery pipeline: Screening and hit evaluation of the MMV Hit Generation Library 1 (HGL1) against asexual blood stage Plasmodium falciparum ,using a nano luciferase reporter read-out” (2022).
About 540 (0.36%) of roughly 150,000 compounds showed an effect of 50% or more. Some of the results follow.

These compounds were tested on Plasmodium falciparum (assay: Primary screen in NF54 nanoGlo assay, in single point, at 2uM, 72h; a lower Z score goes with more inhibition). Details: timepoint 72 hour.
Type: functional, Erythrocyte

Compound	% Inhibition	Z score
CC(C)c1csc(CCNC(=O)C[C@H]2CN(C(C)C)CCO2)n1	-15%	2.91
O=C1NC[C@H]2CN(Cc3ccc(OC(F)F)c(Cl)c3)CCN12	7%	-0.68
O=C(NCCC(F)(F)F)[C@@H]1NCCOc2ccccc21	5%	-0.85
Cc1noc2nc(C3CC3)cc(C(=O)N3CCc4sccc4C3)c12	-1%	0.11
CC(C)c1nc(CCNC2CCCCC2S(C)(=O)=O)cs1 (stereo not drawn)	-1%	0.25
CC1(C)C2CC=C(CNc3ccc4c(c3)OCO4)C1C2 (stereo not drawn)	2%	-0.35
Cc1ncncc1C(=O)N1C[C@H]2CC[C@@H](C1)N(Cc1c(C)noc1C)C2=O	-14%	1.81
CC1=C(C(=O)Nc2cccc(C(F)(F)F)c2)[C@H](c2ccc3c(c2)OCO3)NC(=O)N1	-1%	0.11
c1ccc(CN2CCC(N3CC(c4cccnc4)C3)CC2)cc1	-7%	1.39
Cc1cccc(C(=O)N[C@@H](CC(C)C)C(=O)O)c1	-13%	1.71
N#Cc1c2ccc(O)cc2n2ccccc12	32%	-4.16
CC(C)c1ccc(N2CC(=O)N[C@H](C)C2)nn1	2%	-0.31
O=C(COc1ccc(F)cc1)N1CCC2(CC1)C[C@H](CO)N(C(=O)c1ccccc1)C2	-1%	0.1
CCOC(=O)NCCC(=O)NC[C@](C)(O)c1ccccc1Br	-1%	0.2
CCCc1[nH]c(C)cc(=O)c1C(=O)OC	-6%	0.61
CNS(=O)(=O)C[C@H]1CCCN1C(=O)CC(C)(C)OC	-7%	0.8
CC(C)C1N(C(=O)N2CCOCC2)C(C)CN1S(=O)(=O)c1ccccc1 (stereo not drawn)	-8%	0.94
COc1cc2c(cc1OC)[C@@H]1CN(C(=O)c3c(-c4c(F)cccc4Cl)noc3C)CC(=O)N1CC2	-19%	3
CCC(=O)N1CCN(C(=O)Cc2ccc(C)c(C)c2)[C@H]2CS(=O)(=O)C[C@H]21	-12%	1.11
Cc1n[nH]cc1CN1C(=O)[C@@H]2CCCCN2C1=O	-6%	0.7
c1ccc2c(c1)CC[C@H]2n1ccnc1-c1cc2n(n1)CCCNC2	-20%	2.85

Compound	% Inhibition	Z score
Cc1ccc(NC(=O)CN2CCn3nnc(-c4nc(-c5ccsc5)no4)c3C2=O)c(C)c1	-9%	1.69
CC1CC(C)CN(C(=O)c2ccc(NC(=O)c3ccccc3)cc2)C1 (stereo not drawn)	-7%	0.98
CO[C@@H]1CCC[C@@H]2CN(Cc3c[nH]nc3-c3cccs3)C[C@@H]21	-1%	0.12
O=S(=O)(c1ccccc1Cl)N1CC(c2ccccc2)C(c2ncon2)C1 (stereo not drawn)	-3%	0.51
CCN(CC)S(=O)(=O)c1ccc2c(c1)N(CCCC(=O)N1CCCC1)C(=O)[C@@H]1CCCN21	1%	-0.24
CCc1nccn1CCC(=O)N1C[C@H](C(=O)O)[C@@H](c2ccccn2)C1	-8%	1.55
CCc1ccc(C2=C(C)C(N3CCCN(C(=O)c4ccncc4)CC3)=NS2(=O)=O)cc1	-12%	1.88
CC(C)(C)OC(=O)N1CCc2oncc2C1	-9%	1.1
CC(C)c1nncn1CCNC(=O)c1cnc(-c2ncccn2)s1	-5%	0.67
CCCCCOCC(=O)N1CC(O)(C(N)=O)C1	5%	-0.82
COc1ccc(Oc2c(N(C)C)cnn(-c3ccc(C)cc3)c2=O)cc1	20%	-2.54
O=C(NCc1ccccc1)N1CCC[C@H]1c1nc2ccccc2s1	-10%	1.27
CCN(Cc1nc2cc(Cl)ccc2c(=O)[nH]1)C[C@H](O)COc1ccc(-c2ccccc2)cc1	-4%	0.55
O=C(N[C@@H](CN1CCCC1)c1ccccc1)N1CCC(c2ccn[nH]2)CC1	50%	-8.21
CCOC1CC(Cc2nc(Cc3ccc4[nH]ncc4c3)no2)C1 (stereo not drawn)	5%	-0.61
CCCNC(=O)Cc1ccc(N(Cc2ccc(C)cc2)C(=O)CC)cc1	0%	0.02
Cc1ccc([C@@]2(C)CC(=O)N(Cc3ncc(C4CC4)o3)C2=O)cc1	5%	-0.7
COCc1nc(Cn2cnn(C(C)(C)C)c2=O)cs1	-11%	1.05
O=C(Nc1cccc2nsnc12)C1CCN(c2cc(C3CC3)ncn2)CC1	-4%	0.79
CC(C)n1cncc1CN[C@@H]1CCCC[C@H]1OC(F)F	1%	-0.15
CC(C)CNC(=O)NCCn1nnc2cc(C(=O)NC3CCCC3)ccc21	-3%	0.45

Compound	% Inhibition	Z score
O[C@@H](CNc1nc(C(F)(F)F)cs1)CN1CCOCC1	18%	-2.31
CC(OC1CCCCCC1)C(=O)N1CCCC(CCC(=O)O)C1 (stereo not drawn)	-1%	0.12
Cc1nc2cc(NC(=O)c3ccccn3)ccc2o1	11%	-1.99
CC(C)CN1Cc2cccc(NS(=O)(=O)c3ccc4c(c3)OCCO4)c2C1	-5%	0.54
COC1CCN(C(=O)NCCCCc2ccc(F)c(F)c2)C(C)C1 (stereo not drawn)	-13%	2.22
CS(=O)(=O)CCC(=O)N[C@@H]1CC=CCC1	-3%	0.43
C[C@H]1COC(C)(C)CN1Cc1cnc2n1CCC2	-10%	1.52
NS(=O)(=O)c1cnc(N[C@H]2CCc3ccc(F)cc32)s1	-3%	0.33
Cn1nc(C(=O)N2CCNC(=O)c3ccccc32)cc1C(F)F	-6%	0.7
Cc1c(Br)cccc1CCNC(=O)c1ncnn1C	-10%	1.85
CCCN1C(=O)c2ccccc2C(C(=O)NCc2ccccn2)C1c1cc(OC)c(OC)c(OC)c1 (stereo not drawn)	12%	-1.83
NS(=O)(=O)C[C@H]1CCCN1C(=O)Nc1ccccn1	7%	-0.86
CN(C)S(=O)(=O)C1CCCN(C(=O)CC2COc3ccccc3O2)C1 (stereo not drawn)	-12%	1.26
CC(C)[C@H]1OCC[C@@H]1CNCc1cc[nH]n1	-1%	0.14
CCn1cc(CC(=O)N2CCC3(CC2)C(C)=Nc2ccccc23)nn1	-14%	1.51
Cc1cn2ccc(C(=O)N3Cc4ncccc4N4CCC[C@H]4C3)cc2n1	-17%	2.93
Cc1nn(Cc2c(C(=O)N3CCC(C)(c4noc(-c5cccnc5)n4)CC3)noc2C)c(C)c1C	-16%	2.02
COc1ccc2[nH]c(-c3nc(CCN(C)C(=O)c4ccc(F)cc4)no3)cc2c1	-6%	1.06
Cc1cc(O)ccc1C(=O)N1CCC2(CC1)CC(=O)NC(=O)C2	-7%	1.27
COc1ccc(CNC(=O)Cn2c(C)cc3nc4n(c(=O)c32)CCC4)cc1	-4%	0.57
Cc1cc(C)n(CCn2cnc(-c3ccccc3)c2[C@H]2CCOC2)c(=O)n1	-16%	1.63

Compound	% Inhibition	Z score
Cc1ccc(OCC(=O)N(Cc2ccc(C)o2)c2ccccn2)cc1	8%	-0.92
CN1CCC(CNCc2nnn(C(C)(C)C)n2)(N2CCCCC2)CC1	-5%	0.69
COCC[C@]1(c2noc(-c3cccnc3)n2)CCCN(S(=O)(=O)c2c(C)noc2C)C1	-3%	0.55
Cn1cc(Cc2nc([C@H]3CCOC4(CCCC4)C3)no2)cn1	17%	-2.11
OC[C@H](O)c1cc2n(n1)CCN(c1ncc(F)c(N3CCOCC3)n1)C2	-1%	0.23
O=C(c1ccncc1F)N1CC(CN2C(=O)COC2=O)C1	11%	-1.45
Cc1ccc(CCC(=O)N2CC[S+]([O-])CC2)c(C)c1	-2%	0.23
COc1nc(CNC(=O)Cc2ccc(F)cc2F)nc(OC)n1	-6%	0.71
COCCC1(NC(=O)c2nc(C)oc2C)CCC1	5%	-0.64
COCCCN(Cc1c(-c2cccc(C)c2)noc1N1CCOCC1)C(C)=O	-14%	2.35
O=C1Nc2ccc(Cl)cc2[C@](C#CC2CC2)(C(F)(F)F)O1	-8%	1.08
CCN1CCN(C(=O)CCC2CCN(Cc3c(F)cccc3Cl)CC2)CC1	-15%	2.21
CCc1ccc(C(=O)N2CC3CN(S(=O)(=O)c4cccc(C)c4)CC(C2)O3)cc1	-19%	1.7
COc1ccc(-c2noc(-c3cn(Cc4ccc(N)cc4)cn3)n2)cc1OC	-12%	2.2
CCN(Cc1nc(C(C)C)no1)C(=O)c1ccc(=O)n(C)c1	-2%	0.48
O=C(c1ccc(C(F)(F)F)cc1)[C@H]1CCCN(C(=O)Cn2cncn2)C1	-10%	1.85
Cn1cnnc1CN1CCN(c2ccc(C(F)(F)F)cc2)CC1	1%	-0.06
COc1ccc(Cl)cc1NC(=O)Cn1c(=O)n(Cc2ccccc2Cl)c(=O)c2sccc21	6%	-0.84
Cc1ccc(C)c(NC(=O)Cn2[nH]c(-c3ccc(F)cc3)cc2=O)c1	2%	-0.28
Cc1cnc(C2CCN(Cc3ccccn3)CC2)n1[C@H](C)CO	-22%	1.92
O=C(C[C@H]1CCOC1)N1CC(Oc2ccccc2)C1	11%	-1.51
